Measured values: the supplement of paper PMC9542798

Assays:
Assay in all cases: minimum inhibitory concentration
Ampicillin = compound: CC1(C)S[C@@H]2[C@H](NC(=O)[C@H](N)c3ccccc3)C(=O)N2[C@H]1C(=O)O [Ampicillin]
Procedure: (§1)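 Broth microdilution MIC per ISO 10932 on precoated VetMIC Lact-1 plates (tylosin, vancomycin and ampicillin plates prepared manually) against lactic acid bacteria and bifidobacteria isolates. Plates were read visually after 48 h anaerobic incubation (bifidobacteria 72 h; enterococci and staphylococci 24 h aerobic) at species-specific temperatures of 30 or 37 °C. Values prefixed with < or > are outside the tested dilution range.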

Kanamycin = compound: NC[C@H]1O[C@H](O[C@H]2[C@H](O)[C@@H](O[C@H]3O[C@H](CO)[C@@H](O)[C@H](N)[C@H]3O)[C@H](N)C[C@@H]2N)[C@H](O)[C@@H](O)[C@@H]1O [Kanamycin]
Procedure: as §1

Tetracycline = compound: CN(C)[C@@H]1C(O)=C(C(N)=O)C(=O)[C@@]2(O)C(O)=C3C(=O)c4c(O)cccc4[C@@](C)(O)[C@H]3C[C@@H]12 [Tetracycline]
Procedure: as §1

Gentamicin = compound: CNC(C)C1CCC(N)C(OC2C(N)CC(N)C(OC3OCC(C)(O)C(NC)C3O)C2O)O1 [Gentamicin]
Procedure: as §1

Chloramphenicol = compound: O=C(N[C@H](CO)[C@H](O)c1ccc([N+](=O)[O-])cc1)C(Cl)Cl [Chloramphenicol]
Procedure: as §1

Neomycin = compound: NC[C@@H]1O[C@H](O[C@H]2[C@@H](O)[C@H](O[C@@H]3[C@@H](O)[C@H](N)C[C@H](N)[C@H]3O[C@H]3O[C@H](CN)[C@@H](O)[C@H](O)[C@H]3N)O[C@@H]2CO)[C@H](N)[C@@H](O)[C@@H]1O [Neomycin]
Procedure: as §1

Streptomycin = compound: CN[C@@H]1[C@H](O[C@H]2[C@H](O[C@H]3[C@H](O)[C@@H](O)[C@H](N=C(N)N)[C@@H](O)[C@@H]3N=C(N)N)O[C@@H](C)[C@]2(O)C=O)O[C@@H](CO)[C@H](O)[C@H]1O [Streptomycin]
Procedure: as §1

Clindamycin = compound: CCC[C@@H]1C[C@@H](C(=O)N[C@@H]([C@H]2O[C@H](SC)[C@H](O)[C@@H](O)[C@H]2O)[C@H](C)Cl)N(C)C1 [Clindamycin]
Procedure: as §1

Erythromycin = compound: CC[C@H]1OC(=O)[C@H](C)[C@@H](O[C@H]2C[C@@](C)(OC)[C@@H](O)[C@H](C)O2)[C@H](C)[C@@H](O[C@@H]2O[C@H](C)C[C@H](N(C)C)[C@H]2O)[C@](C)(O)C[C@@H](C)C(=O)[C@H](C)[C@@H](O)[C@]1(C)O [Erythromycin]
Procedure: as §1
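Note: isolates derived from commercial starter, protective, probiotic or feed-additive cultures, from fermented products, from human gut mucosa or feces, and from human milk or colostrum.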

Test System | minimum inhibitory concentration (Ampicillin) | minimum inhibitory concentration (Kanamycin) | minimum inhibitory concentration (Tetracycline) | minimum inhibitory concentration (Gentamicin) | minimum inhibitory concentration (Chloramphenicol) | minimum inhibitory concentration (Neomycin) | minimum inhibitory concentration (Streptomycin) | minimum inhibitory concentration (Clindamycin) | minimum inhibitory concentration (Erythromycin)
Lactiplantibacillus plantarum IM1295 (strain group: non-starter strains) | 1 µg/mL | 64 µg/mL | 16 µg/mL | 4 µg/mL | 8 µg/mL | 4 µg/mL | 32 µg/mL | 2 µg/mL | 0.25 µg/mL
Lactiplantibacillus plantarum IM659 (strain group: probiotic strains) | 0.5 µg/mL | 128 µg/mL | 16 µg/mL | 8 µg/mL | 8 µg/mL | 8 µg/mL | 64 µg/mL | 16 µg/mL | 1 µg/mL
Lacticaseibacillus paracasei IM1137 (strain group: non-starter strains) | 2 µg/mL | 64 µg/mL | 32 µg/mL | 4 µg/mL | 8 µg/mL | 4 µg/mL | 64 µg/mL | 0.25 µg/mL | 0.5 µg/mL
Pediococcus pentosaceus IM1113 (strain group: non-starter strains) | 4 µg/mL | 256 µg/mL | 32 µg/mL | 4 µg/mL | 8 µg/mL | 8 µg/mL | 64 µg/mL | 0.12 µg/mL | 0.5 µg/mL
Lactiplantibacillus plantarum IM1382 (strain group: probiotic strains) | 0.5 µg/mL | 128 µg/mL | 16 µg/mL | 16 µg/mL | 8 µg/mL | 32 µg/mL | 128 µg/mL | 8 µg/mL | 0.5 µg/mL
Levilactobacillus brevis IM1146 (strain group: non-starter strains) | 2 µg/mL | 32 µg/mL | 8 µg/mL | 1 µg/mL | 4 µg/mL | 2 µg/mL | 16 µg/mL | 8 µg/mL | 0.25 µg/mL
Limosilactobacillus fermentum IM858 (strain group: human milk or colostrum) | 1 µg/mL | 64 µg/mL | 4 µg/mL | 2 µg/mL | 4 µg/mL | 2 µg/mL | 32 µg/mL | 0.06 µg/mL | 0.25 µg/mL
Lacticaseibacillus paracasei IM1011 (strain group: non-starter strains) | 1 µg/mL | 32 µg/mL | 1 µg/mL | 2 µg/mL | 4 µg/mL | 8 µg/mL | 16 µg/mL | 0.12 µg/mL | 0.12 µg/mL
Pediococcus acidilactici/pentosaceus/lolli IM721 (strain group: human milk or colostrum) | 4 µg/mL | 256 µg/mL | 32 µg/mL | 16 µg/mL | 8 µg/mL | 16 µg/mL | 64 µg/mL | 0.12 µg/mL | 1 µg/mL
Lacticaseibacillus paracasei IM1083 (strain group: non-starter strains) | 1 µg/mL | 64 µg/mL | 1 µg/mL | 4 µg/mL | 4 µg/mL | 8 µg/mL | 32 µg/mL | 0.12 µg/mL | 0.25 µg/mL
Lactiplantibacillus plantarum IM1394 (strain group: probiotic strains) | 0.5 µg/mL | 128 µg/mL | 32 µg/mL | 8 µg/mL | 8 µg/mL | 8 µg/mL | 64 µg/mL | 16 µg/mL | 0.5 µg/mL
Lactiplantibacillus plantarum IM112 (strain group: feed additives) | 0.5 µg/mL | 64 µg/mL | 16 µg/mL | 2 µg/mL | 4 µg/mL | 4 µg/mL | 32 µg/mL | 4 µg/mL | 0.5 µg/mL
Lacticaseibacillus paracasei IM696 (strain group: human intestinal mucosa or faeces) | 1 µg/mL | 32 µg/mL | 1 µg/mL | 4 µg/mL | 4 µg/mL | 8 µg/mL | 16 µg/mL | 0.12 µg/mL | 0.12 µg/mL
Lactiplantibacillus plantarum IM870 (strain group: probiotic strains) | 0.5 µg/mL | 256 µg/mL | 16 µg/mL | 8 µg/mL | 8 µg/mL | 8 µg/mL | 64 µg/mL | 4 µg/mL | 0.5 µg/mL
Limosilactobacillus fermentum IM857 (strain group: human milk or colostrum) | 0.5 µg/mL | 64 µg/mL | 4 µg/mL | 2 µg/mL | 4 µg/mL | 2 µg/mL | 32 µg/mL | 0.06 µg/mL | 0.25 µg/mL
Lactiplantibacillus plantarum IM1285 (strain group: non-starter strains) | 1 µg/mL | 128 µg/mL | 16 µg/mL | 2 µg/mL | 16 µg/mL | 2 µg/mL | 32 µg/mL | < 0.03 µg/mL | 0.5 µg/mL

Test System | minimum inhibitory concentration (Ampicillin) | minimum inhibitory concentration (Kanamycin) | minimum inhibitory concentration (Tetracycline) | minimum inhibitory concentration (Gentamicin) | minimum inhibitory concentration (Chloramphenicol) | minimum inhibitory concentration (Neomycin) | minimum inhibitory concentration (Streptomycin) | minimum inhibitory concentration (Clindamycin) | minimum inhibitory concentration (Erythromycin)
Lacticaseibacillus paracasei IM694 (strain group: human intestinal mucosa or faeces) | 1 µg/mL | 32 µg/mL | 2 µg/mL | 4 µg/mL | 4 µg/mL | 8 µg/mL | 32 µg/mL | 1 µg/mL | 0.12 µg/mL
Lactiplantibacillus plantarum IM1331 (strain group: non-starter strains) | 1 µg/mL | 32 µg/mL | 16 µg/mL | 2 µg/mL | 8 µg/mL | 1 µg/mL | 32 µg/mL | 16 µg/mL | 1 µg/mL
Lacticaseibacillus rhamnosus IM860 (strain group: human milk or colostrum) | 2 µg/mL | 64 µg/mL | 1 µg/mL | 4 µg/mL | 8 µg/mL | 4 µg/mL | 16 µg/mL | 1 µg/mL | 0.25 µg/mL
Limosilactobacillus fermentum IM915 (strain group: human milk or colostrum) | 2 µg/mL | 64 µg/mL | 4 µg/mL | 2 µg/mL | 8 µg/mL | 2 µg/mL | 32 µg/mL | 0.06 µg/mL | 0.25 µg/mL
Lacticaseibacillus paracasei IM1391 (strain group: probiotic strains) | 2 µg/mL | 32 µg/mL | 2 µg/mL | 2 µg/mL | 8 µg/mL | 4 µg/mL | 16 µg/mL | 0.12 µg/mL | 0.25 µg/mL
Pediococcus pentosaceus IM1089 (strain group: non-starter strains) | 4 µg/mL | 256 µg/mL | 32 µg/mL | 8 µg/mL | 8 µg/mL | 8 µg/mL | 64 µg/mL | 0.06 µg/mL | 0.5 µg/mL
Lacticaseibacillus paracasei IM1140 (strain group: non-starter strains) | 4 µg/mL | 16 µg/mL | 1 µg/mL | 1 µg/mL | 4 µg/mL | 1 µg/mL | 8 µg/mL | 0.12 µg/mL | 0.12 µg/mL
Limosilactobacillus fermentum IM865 (strain group: human milk or colostrum) | 0.5 µg/mL | 128 µg/mL | 4 µg/mL | 2 µg/mL | 8 µg/mL | 2 µg/mL | 32 µg/mL | 0.06 µg/mL | 0.25 µg/mL
Lactiplantibacillus plantarum IM1027 (strain group: non-starter strains) | 2 µg/mL | 128 µg/mL | 8 µg/mL | 8 µg/mL | 4 µg/mL | 8 µg/mL | 64 µg/mL | 4 µg/mL | 0.25 µg/mL
Lactiplantibacillus plantarum IM699 (strain group: human intestinal mucosa or faeces) | 0.5 µg/mL | 128 µg/mL | 16 µg/mL | 8 µg/mL | 8 µg/mL | 4 µg/mL | 64 µg/mL | 2 µg/mL | 0.5 µg/mL
Lactiplantibacillus plantarum IM1009 (strain group: non-starter strains) | 1 µg/mL | 64 µg/mL | 8 µg/mL | 4 µg/mL | 4 µg/mL | 4 µg/mL | 32 µg/mL | 8 µg/mL | 0.5 µg/mL
Limosilactobacillus fermentum IM945 (strain group: human milk or colostrum) | 0.5 µg/mL | 64 µg/mL | 8 µg/mL | 2 µg/mL | 8 µg/mL | 2 µg/mL | 32 µg/mL | 0.12 µg/mL | 0.25 µg/mL
Lacticaseibacillus rhamnosus/paracasei/casei IM855 (strain group: human milk or colostrum) | 0.5 µg/mL | 128 µg/mL | 8 µg/mL | 4 µg/mL | 8 µg/mL | 4 µg/mL | 64 µg/mL | 0.06 µg/mL | 0.25 µg/mL
Pediococcus pentosaceus IM1056 (strain group: non-starter strains) | 4 µg/mL | 256 µg/mL | 32 µg/mL | 8 µg/mL | 4 µg/mL | 8 µg/mL | 64 µg/mL | 0.12 µg/mL | 0.5 µg/mL
Lacticaseibacillus rhamnosus IM685 (strain group: human intestinal mucosa or faeces) | > 16 µg/mL | 64 µg/mL | 1 µg/mL | 4 µg/mL | 8 µg/mL | 16 µg/mL | 32 µg/mL | 1 µg/mL | 0.25 µg/mL
Lactiplantibacillus plantarum IM1136 (strain group: non-starter strains) | 2 µg/mL | 128 µg/mL | 32 µg/mL | 4 µg/mL | 8 µg/mL | 4 µg/mL | 64 µg/mL | 0.25 µg/mL | 0.5 µg/mL
